Measured values published in paper PMC12136788.
Some of the results follow.

T1: UNK ZnF1-3 (human, UniProt Q9C0B0 31-174)
T1 sequence: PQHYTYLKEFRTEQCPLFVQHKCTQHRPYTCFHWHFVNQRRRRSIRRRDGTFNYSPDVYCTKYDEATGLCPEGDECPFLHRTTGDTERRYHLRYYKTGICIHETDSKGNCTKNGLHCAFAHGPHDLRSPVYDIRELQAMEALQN

B1: chr7:102952668:102952669:+_ENSG00000105819_ENST00000453466|hu_hu|FALSE|FALSE (ssRNA)
RNA: GGGAGUUCUACAGUCCGACGAUCCUGUUUAAAAUCUGGUAGUUGCUUAAUGGGACCAACAGCAGCAAUAGCUGGACUCCUAUUAUAAAUGUAUUUGGUACAUACUUCUCGAAUUGUCUCAGCAUUCACAGCAUCAAUUCUUGCCAACAGAGGAUUGAGCAUCA
B2: chr3:150289932:150289933:+_ENSG00000144895_ENST00000460851|hu_hu|hu_hu_hu_mus_False|8_98 (ssRNA)
RNA: GGGAGUUCUACAGUCCGACGAUCCUUGUAGUUUUUAACAUCCCACACUUCCAUUUGUCCUCGAAGAUUUCCAAAUCCAGCCAGCACUAAUAUAUGUCCAUGAGGGCUAUAGAAGGCUGCGUUGCGAGGACCAGUUCCAAAGUCCAACAGAGGAUUGAGCAUCA
B3: chr7:102944291:102944292:+_ENSG00000105819_ENST00000453466|hu_mus|FALSE|FALSE (ssRNA)
RNA: GGGAGUUCUACAGUCCGACGAUCCUCAAUCUCUGCUUCUCCCAGUGUGCUGUUCUGAAUUAUGUCAGCAAGAAUUUCUACAGCUCUGGGCAAAUCUCUCGAGAAUGCUUUGGCGUAGUAGACAGUCUGCUCUCUGGAGGUAUACAACAGAGGAUUGAGCAUCA
B4: chr1:52991732:52991733:-_ENSG00000134744_ENST00000257177|hu_mus|motif|central (ssRNA)
RNA: GGGAGUUCUACAGUCCGACGAUCUUUAGGGCCUGGAACACUGGCAGCGUUUACUUUACAUGAUUUAGCUUCUGUUUUUUCGGUACAAAUAUCAUUUUGCUUGGUUUUUUUACUACUAUUUCUAUUCAGAGAGCUGGUCCCAAUCAACAGAGGAUUGAGCAUCA
B5: chr11:61557309:61557310:-_ENSG00000134825_ENST00000537328|hu_hu|motif|central (ssRNA)
RNA: GGGAGUUCUACAGUCCGACGAUCGAUGCCAACCCAGAGCAGCAGGAAGAGGACUCCAAAGCCCAUGAAGAGUGAGGCCACGGAGGAGAUGAGGAGCUCUUUAUAGAUAUCACGAGUGUACUUGGUAGAGGUGACCUCGUAAACCAACAGAGGAUUGAGCAUCA
B6: chr2:48026839:48026840:+_ENSG00000116062_ENST00000540021|hu_hu|hu_hu_hu_mus_False|18_28 (ssRNA)
RNA: GGGAGUUCUACAGUCCGACGAUCAUAGUGAGCCACUAGCGUCCUAAAUCUGGAACAGUGGCGGUCAUCCGAAAACUGGCCGAUGAAAAACUUGCCCAGUGAAGUGUCAACAAAGCACACACCAUAUACACGAGUGUGACCAGACAACAGAGGAUUGAGCAUCA
B7: chr2:26350769:26350770:+_ENSG00000084733_ENST00000264710|hu_hu|FALSE|FALSE (ssRNA)
RNA: GGGAGUUCUACAGUCCGACGAUCGAUAUCUUCAGCUAACGUGAGGAACGCCUUUUCGAUGUUUAUAUUUGCUUUUGCACUAGUCUCAAAAAACCUAAUACCAUGCUCCCUUGCAAUCUGUUCUCCUUUUCCUUUAGGUACAACCAACAGAGGAUUGAGCAUCA
B8: chr1:21106938:21106939:-_ENSG00000127483_ENST00000312239|hu_hu|FALSE|FALSE (ssRNA)
RNA: GGGAGUUCUACAGUCCGACGAUCUGGGAGUGCCUUAGGAUGGACGAGUUCACCUUGAGACGUAUCAGUCGCCAUUUUAAAUAAUUUCUAGGCCCGAGUACAGGUUACACUCUGAAGCCUCUGCUGUUAACCACAAGGAUUUUUCAACAGAGGAUUGAGCAUCA
B9: 65298466_65308830_830_CDS_ENSG00000103707_ENST00000220058|human|control|control (ssRNA)
RNA: GGGAGUUCUACAGUCCGACGAUCGUUAACUUCUACCAAAUCCAGAAGUUUAAUGGUAUUCGCCAUCCAGAGCGUCUGCAACGGAAUUAUAUUUCCAAUGGCACGGUAAAGUCUGAAUAUUUGUUCUGAAGUUUGUUCCUCCCACAACAGAGGAUUGAGCAUCA
B10: chr3:115528449:115528450:-_ENSG00000185565_ENST00000490035|hu_mus|FALSE|FALSE (ssRNA)
RNA: GGGAGUUCUACAGUCCGACGAUCCGCACGCGCACAGUGGAGAAGAUGAAAAUGGUACUUCCUAAAGUUUGCGGCGUGACUCGUGUUCUGGGUUGCUGGGGCAAAAGGGAGGUGGGGGUAGAGAAAAGGGGAAUAUUUGGAAUGCAACAGAGGAUUGAGCAUCA
B11: chr21:30434530:30434531:-_ENSG00000156261_ENST00000286788|hu_hu|motif|central (ssRNA)
RNA: GGGAGUUCUACAGUCCGACGAUCAUCGUCUACUGCCCUUUCUAUGUCAUCCAUCAGAUUGUCUGUAGAGCCUCGAAGUACGGUGGUAGAAAUGGCGCCAUCUUCCUUUUCAUGCUUAAAAACCACCACCUGAGUAUCUCCAACCAACAGAGGAUUGAGCAUCA
B12: chr4:88379012:88379013:+_ENSG00000170502_ENST00000302174|hu_mus|FALSE|FALSE (ssRNA)
RNA: GGGAGUUCUACAGUCCGACGAUCGUCGCUGAUGUCCACCCACUUCACCUUCCCUGCGUCAUCUCCGGCCUCCAGGGUGAGGUUGUCCAUGGUCUCCCCUGUUUCAUCAUGGUAGUUCACGGCUUCCGUCUCCAUCCACGCAUUCAACAGAGGAUUGAGCAUCA
B13: 130911969_130912702_1509_CDS_ENSG00000136699_ENST00000351288|human|control|control (ssRNA)
RNA: GGGAGUUCUACAGUCCGACGAUCGAAGCUCCCAGUGAAUGUGGGGGCCGUGAAGAGUCGGUGCUGGCGGUGGGGGAUGACCAGCUCUGGCUCCAGGAAUAGCUGCUCACCUUUCUGAAUCAUCUCAGCCAGGUUGGGCUGGGCCAACAGAGGAUUGAGCAUCA
B14: chr5:69964302:69964303:+_ENSMUSG00000029208_ENSMUST00000154728|mus_mus|FALSE|FALSE (ssRNA)
RNA: GGGAGUUCUACAGUCCGACGAUCCAGUAUCAAGACUUUUUCUUGGAGUAAUGUAUUUUUCAGUUUGUUAUGAACAUGAAACUAAUCCAUUUAUUAGCUGUGUCAUUUAGGUAUGUUUAGUUAAUAGCUUCUAAUUUAUUAACACAACAGAGGAUUGAGCAUCA
B15: chr1:39494564:39494565:+_ENSG00000168653_ENST00000372967|hu_hu|hu_hu_hu_mus_True|38_88 (ssRNA)
RNA: GGGAGUUCUACAGUCCGACGAUCAUGCAUUCGCCUCAUCGUUUUGUGCCGAAGCAAGCACUCUUCGAAGUCAUCGAACUCUAUCUUGCACUCCUUUUCUGCCCGAGUCCCACCGAUCCCGUGUGCACACUCUAUCCACUCUUUCAACAGAGGAUUGAGCAUCA
B16: chr16:57153313:57153314:+_ENSMUSG00000022752_ENSMUST00000166897|mus_hu|motif|central (ssRNA)
RNA: GGGAGUUCUACAGUCCGACGAUCUUUCAAAAAAUCAACUGAAAGCGGUUAACUGAAUAUAAAUCUAUUUUACAGCAUUUACGGCGUUAAUUUAAAAAUCAACAUGCUGUAAAAUACUUACAUUAUUCACACAUAUAUAGACGGCAACAGAGGAUUGAGCAUCA
B17: 113181949_113184194_628_3pUTR_ENSG00000138660_ENST00000274000|human|control|control (ssRNA)
RNA: GGGAGUUCUACAGUCCGACGAUCAGCGUAUAAAGCUUCUUCUUCUAGUCUUAACUUCUCUUCUUGUAAGGCUAACUCUUUUUGAAUUUUCUUAUCAAGAUCUUUUUGUUUUUCGGCAAUGGAAUCAUAAUGCCUUUCUCUUAGCAACAGAGGAUUGAGCAUCA
B18: 17260850_17260970_3741_3pUTR_ENSMUSG00000050240_ENSMUST00000090190|mouse|control|control (ssRNA)
RNA: GGGAGUUCUACAGUCCGACGAUCUUGGUCUGAAGUAAAAAUCAAAAGGAAAAUGAAAAGCCAUGAAGCAACAUGAUAAGGUCUAUAGGCCCAUCUGGGACAGAACACAGACACUCUUGGUCUUGCCUUGCCCCUUGCAGAAGCCAACAGAGGAUUGAGCAUCA
B19: chr9:79618081:79618082:-_ENSMUSG00000032328_ENSMUST00000034878|mus_mus|FALSE|FALSE (ssRNA)
RNA: GGGAGUUCUACAGUCCGACGAUCCUUCAUUAAAGAGGAUGUGUAUACAUAUCCAUAUUUGUUAGACCUGUAUGCAAAAAAUUUAAUGAAAUAUGGAAGAAAUUAGGAUUUCAAAUUUUUCUGGAAUAUUAUACUCAGUCACUUCAACAGAGGAUUGAGCAUCA
B20: chr1:89688648:89688649:+_ENSMUSG00000026289_ENSMUST00000027512|mus_hu|motif|central (ssRNA)
RNA: GGGAGUUCUACAGUCCGACGAUCUGGCCUUCAUCACAACCCCUGAAACGGAAAGAUGGCGCUGCUGUGCUUCUGAGCCGGGGCUUCUUGCACUAAAGCACCAAGGGCAUCGCACACAGGCUUGGCAGAGGGGCCAUGGCCAGACAACAGAGGAUUGAGCAUCA
B21: 48270083_48270203_4574_3pUTR_ENSMUSG00000038143_ENSMUST00000110367|mouse|control|control (ssRNA)
RNA: GGGAGUUCUACAGUCCGACGAUCAGUGAAAAUAUUUUAUAUUGAUUUUUAUGAAUUCAUUAUGGUAUAUGGCUCCAAAACUCAUCUGACACUAAACUGAAUAUAACUUUAUCUCUGGUCAUUUUCCUGGGAUUAGAUCUAACCCAACAGAGGAUUGAGCAUCA
B22: chr7:141450121:141450122:+_ENSG00000106028_ENST00000265304|hu_mus|hu_hu_hu_mus_True|18_28 (ssRNA)
RNA: GGGAGUUCUACAGUCCGACGAUCUCAUCCGUUCUAUGCCUUUUCUUUUGUCUGGUCACUCAGAAAUAUAAUGUUAUCAGCUAUGAUUGUUGUUGCUUGCCGCCUCACAUUAUUUUUAUCCAUGUAUUCGCCAUAGUCCACUUUCAACAGAGGAUUGAGCAUCA

Molecular target: T1, UNK ZnF1-3
Assay: nsRBNS (natural sequence RNA bind-n-seq); RBNS binding buffer (assumed for nsRBNS): 25 mM Tris pH 7.5, 150 mM KCl, 3 mM MgCl2, 0.01% Triton X-100, 500 ug/ml BSA, 20 U/ml SUPERase-In, 4 C; UNK is unkempt and MSI1 is Musashi-1; names of the RNAs are library labels; protein concentration not given here; high values mean tight binding

Q: B1 was tested. Which binding signal did it give?
A: 1.59 enrichment R

Q: B2 was tested. Which binding signal did it give?
A: 0.93 enrichment R

Q: Which binding signal does the source give for B3 here?
A: 1.07 enrichment R

Q: How did the binding signal turn out when B4 was run?
A: 0.721 enrichment R

Q: B5 was tested. Which binding signal did it give?
A: 2.67 enrichment R

Q: For B6, which binding signal is on record?
A: 1.39 enrichment R

Q: Which binding signal does the source give for B7 here?
A: 0.629 enrichment R

Q: B8 was tested. Which binding signal did it give?
A: 0.962 enrichment R

Q: How did the binding signal turn out when B9 was run?
A: 1.08 enrichment R

Q: For B10, which binding signal is on record?
A: 1.9 enrichment R

Q: How did the binding signal turn out when B11 was run?
A: 0.995 enrichment R

Q: B12 was tested. Which binding signal did it give?
A: 0.539 enrichment R

Q: With B13 as the binder, how does the binding signal read?
A: 0.84 enrichment R

Q: Which binding signal does the source give for B14 here?
A: 0.278 enrichment R

Q: How did the binding signal turn out when B15 was run?
A: 0.727 enrichment R

Q: Which binding signal does the source give for B16 here?
A: 0.457 enrichment R

Q: How did the binding signal turn out when B17 was run?
A: 0.358 enrichment R

Q: Which binding signal does the source give for B18 here?
A: 1.39 enrichment R

Q: B19 was tested. Which binding signal did it give?
A: 1.21 enrichment R

Q: How did the binding signal turn out when B20 was run?
A: 1.16 enrichment R

Q: With B21 as the binder, how does the binding signal read?
A: 2.96 enrichment R

Q: How did the binding signal turn out when B22 was run?
A: 0.436 enrichment R
